Experimental data published in patent US10299477B2 (priority 2015, dated 2019).
Where two headings read alike, the source gives them in different places.

What was measured:
Magnaporthe grisea = assay type: in vivo; settings: for Test A (control value class, blast on rice): in vivo
Phytophthora infestans = assay type: in vivo; settings: for Test F (control value class): 250 ppm spray; for Test F (control value class, late blight on tomato): 250 ppm, sprayed 2.5 ml/pot before inoculation; for Test F control value: 250 ppm sprayed before inoculation
[1] = rice blast, Magnaporthe grisea, 250 ppm spray
[2] = late blight on tomato, Phytophthora infestans, 5-10 days after inoculation
[3] = evaluated 5-10 days after inoculation
[4] = Blast on rice, control value=100{1-(n/3)}
[5] = Late blight on tomato, 2.5 ml/pot, evaluated 5-10 days after inoculation
[6] = Late blight on tomato, 5-10 days after inoculation

SMILES | Test A (control value class) (Magnaporthe grisea; [1]) | Test F (control value class) (Phytophthora infestans; [2]) | Test A (control value class, blast on rice) (Magnaporthe grisea) | Test F (control value class, late blight on tomato) (Phytophthora infestans; [3]) | other results
Cn1c(-c2c(F)cc(F)cc2F)c(-c2cccc(F)c2Cl)cc(Cl)c1=O [Compound 500] | H (H shows more than 50% of control values) | L (L shows 50% or less of control values) | – | – | –
CCOc1cc(F)c(-c2c(-c3cc(F)cc(F)c3F)cc(Cl)c(=O)n2CC)c(F)c1 [Compound 580] | – | – | H (H shows more than 50% of control values) | L (L shows 50% or less of control values) | –
CCN1C(=O)CCC(c2ccc(F)cc2Cl)=C1c1c(F)cc(F)cc1F [Compound 573] | – | – | H (H shows more than 50% of control values) | L (L shows 50% or less of control values) | –
COc1cc(F)c(-c2c(-c3cccc(F)c3F)cc(Cl)c(=O)n2C)c(F)c1 [Compound 562] | – | – | H (H shows more than 50% of control values) | L (L shows 50% or less of control values) | –
CCn1c(-c2c(F)cc(F)cc2F)c(-c2ccccc2F)cc(F)c1=O [Compound 568] | – | – | H (H shows more than 50% of control values) | L (L shows 50% or less of control values) | –
CCOc1cc(F)c(-c2c(-c3cc(OC)cc(OC)c3Cl)ccc(=O)n2CC)c(F)c1 [Compound 378] | H (H shows more than 50% of control values) | L (L shows 50% or less of control values) | – | – | –
Cn1c(-c2c(F)cc(F)cc2F)c(-c2cccc(F)c2F)ccc1=O [Compound 557] | H (H shows more than 50% of control values) | L (L shows 50% or less of control values) | – | – | –
CCn1c(-c2c(F)cccc2F)c(-c2cc(OCC#N)ccc2Cl)cc(C)c1=O [Compound 801] | – | – | – | – | Test A (control value class) (Magnaporthe grisea; [4]): H (H shows more than 50% of control values); Test F (control value class) (Phytophthora infestans; [5]): L (L shows 50% or less of control values)
CCn1c(-c2c(F)cc(F)cc2F)c(-c2cc(F)cc(F)c2Br)cc(Cl)c1=O [Compound 813] | – | – | – | – | Test A (control value class) (Magnaporthe grisea; [4]): H (H shows more than 50% of control values); Test F (control value class) (Phytophthora infestans; [5]): L (L shows 50% or less of control values)
CCCn1c(-c2c(F)cccc2F)c(-c2cc(OC)ccc2Cl)cc(Br)c1=O [Compound 401] | H (H shows more than 50% of control values) | L (L shows 50% or less of control values) | – | – | –
Cn1c(-c2c(F)cc(F)cc2F)c(-c2cc(F)cc(F)c2)ccc1=O [Compound 800] | – | – | – | – | Test A (control value class) (Magnaporthe grisea; [4]): H (H shows more than 50% of control values); Test F (control value class) (Phytophthora infestans; [5]): L (L shows 50% or less of control values)
CCn1c(-c2c(F)cccc2Br)c(-c2cc(OC)cc(OC)c2)ccc1=O [Compound 175] | – | – | – | – | Test A control value (Magnaporthe grisea; Blast on rice): H (H shows more than 50% of control values); Test F control value (Phytophthora infestans; [6]): L (L shows 50% or less of control values)
COc1ccc(Cl)c(-c2ccc(=O)n(C)c2-c2c(F)cc(F)cc2F)c1 [Compound 415] | H (H shows more than 50% of control values) | H (H shows more than 50% of control values) | – | – | –
CCn1c(-c2c(F)cccc2F)c(-c2cc(OCC#N)ccc2Cl)cc(Cl)c1=O [Compound 129] | – | – | – | – | Test A control value (Magnaporthe grisea; Blast on rice): H (H shows more than 50% of control values); Test F control value (Phytophthora infestans; [6]): L (L shows 50% or less of control values)
CCn1c(-c2c(F)cc(OC)cc2F)c(-c2cccc(F)c2F)ccc1=O [Compound 588] | – | – | H (H shows more than 50% of control values) | L (L shows 50% or less of control values) | –
